# Measured values reported in PubChem BioAssay AID434955 (Southern Research Specialized Biocontainment Screening …, 2010).
# The list shows a part of the results. Shown are side measurements of this screen, not its main read-out; they come without a call. Compounds called inactive in the main read-out are mostly missing here.
# Test: beta-lactam sensitization of Mtb H37Rv, H37Rv (AID 434955);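 further: growth measured after seven days incubation then overnight dye step; 0% = bacteria only wells and 100% = bacteria with antibiotic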
# Settings: M. tuberculosis H37Rv growth with meropenem, percent inhibition; measured here: primary screen without meropenem; at 25 µM
row,SMILES,inhibition
1,Cc1ccc(S(=O)(=O)N2CCN(c3ccc(C(=O)N4CCOCC4)cc3[N+](=O)[O-])CC2)cc1,1.87%
2,CN(CC1CCOCC1)C(=O)c1ccc2nc(Cc3cccc(Cl)c3)oc2c1,1.2%
3,Cc1cccc(-c2nnc(NC(=O)c3ccc(Cl)cc3)o2)c1,96.5%
4,Cc1cc(C(=O)N2CCCC(C(=O)c3ccc(Cl)cc3C)C2)no1 (stereo not drawn),0.69%
5,Cc1cccc(N2CCN(C(=O)COCc3cc(-c4ccc5c(c4)OCO5)on3)CC2)c1C,3.26%
6,CNC(=O)c1c(NC(=O)c2ccc(N3C(=O)CCC3=O)cc2)sc2c1CCC(C)C2 (stereo not drawn),5.44%
7,O=C(Nc1nnc(C2=COCCO2)o1)c1ccc([N+](=O)[O-])s1,82.3%
8,CN1CCOc2ccc(S(=O)(=O)NCCc3ccc(Cl)cc3)cc21,-0.46%
9,Cc1cc(NC(=S)NC(=O)c2ccccc2)ccc1-c1cc2ccccc2oc1=O,-12.1%
10,Cc1ccc(CN(C(=O)c2ccco2)C2CCS(=O)(=O)C2)cc1 (stereo not drawn),-3.45%
11,Cc1ccc(NC(=O)[C@H](C)NC(=O)C2CCN(C(=O)[C@@H](NC(=O)OC(C)(C)C)C(C)C)CC2)cc1,2.15%
12,COCCn1c(=O)[nH]c2cc(C(=O)NCc3ccccc3)ccc2c1=O,10.6%
13,C=CCOc1ccccc1CN1CCC(Oc2ccc(C(=O)N3CCCCC3)cc2)CC1,5.09%
14,COCCSc1nc2sc3c(c2c(=O)n1-c1ccccc1)CCN(C)C3,12.2%
15,CCC(=O)Nc1nnc(SCC(=O)NCC2CCCO2)s1 (stereo not drawn),4.23%
16,N#Cc1cccc(NC(=O)Cn2c3[n+](c4ccc(C(F)(F)F)cc42)CCCCC3)c1,2.1%
17,COC(=O)Cc1nnc(SCC(=O)Nc2ccccc2)c2ccccc12,1.45%
18,COC(=O)C1=C(O)/C(=C\c2ccc(OCC(=O)Nc3ccccc3)cc2)N=C1C,3.25%
19,Cc1[nH]c(C)c(S(=O)(=O)N(C)Cc2ccccc2)c1C(=O)N1CCCCC1,0.1%
20,CCCN(C(=O)C(C)Oc1cccc(Cl)c1)c1c(N)n(Cc2ccccc2)c(=O)[nH]c1=O (stereo not drawn),-0.12%
21,O=S(=O)(/N=C(/Nc1ccccn1)c1ccccc1)c1ccc(Cl)cc1,1.86%
22,CC(C)(C)C1CCc2onc(C(=O)NCc3ccc(F)cc3)c2C1 (stereo not drawn),-7.8%
23,CCOCCCNC(=O)C1CCN(S(=O)(=O)c2c(C)noc2/C=C\c2ccc(OC)cc2)CC1,-4.74%
24,CCCCCCOc1ccc(CN2CCN(C)CC2)cc1,-1.62%
25,CCCCCn1c(S(=O)(=O)O)nc2ccccc21,-5.39%
26,COC(=O)CCCCCC(CCC(=O)OC)NC(C)=O (stereo not drawn),-14.1%
27,Cc1cccc(CNC(=O)c2ccc3nc(Cc4ccccc4F)oc3c2)n1,3.72%

row,SMILES,inhibition
1,N#CC1=C2N=C(N)c3ccccc3N2C2=C(C(=O)CCC2)C1c1ccc(Cl)cc1 (stereo not drawn),74.3%
2,Cc1ccc(S(=O)(=O)N2CCN(C(=O)COC(=O)c3ccc(C(C)(C)C)cc3)CC2)c(C)c1,39.2%
3,Cc1cc(C(F)F)n2nc(C(=O)Nc3sc4c(c3C(N)=O)CCC4)nc2n1,37%
4,CN(C)c1ccc(/C=N/NC(=O)c2cc(-c3ccc4c(c3)OCO4)n[nH]2)cc1,-5.04%
5,CC(C)N1CCN(C(=O)c2ccc(OC3CCN(CCc4ccccc4)CC3)cc2)CC1,5.63%
6,COCCNC(=O)c1ccc(CS(=O)(=O)c2ccc(OC)cc2)o1,0.24%
7,COCCc1nn2c(=O)cc(COC(=O)c3cc(OC)c(OC)c(OC)c3)nc2s1,-4.46%
8,O=C(Nc1nc2ccccc2[nH]1)c1ccccc1F,21.4%
9,COc1ccccc1N1CC(C(=O)Nc2nnc(SCC(=O)N3CCCC3)s2)CC1=O (stereo not drawn),-1.53%
10,O=C(CNC(=O)c1ccccc1)NC1(C(=O)NC2CCCC2)CCCCC1,7.54%
11,CCN(CCCNC(=O)c1cn(CC)c2ccc(S(=O)(=O)N(C)C)cc2c1=O)c1cccc(C)c1,-6.44%
12,C=CCC1(CC=C)CCCN1C(=O)c1cc(COc2cncc(Cl)c2)on1,-3.16%
13,CCCC(C)C(=O)Nc1nnc(C)s1 (stereo not drawn),-2.72%
14,O=C(CCC(=O)N1CCCCCC1)Nc1ccc([N+](=O)[O-])cc1,7.06%
15,CCc1cccc(OCCCCNCCCOC)c1,-16.6%
16,CCc1nc(SCC(=O)Nc2ccc(F)cc2)c2c(=O)n(C)c(=O)n(C)c2n1,7.11%
17,S=c1[nH]nc(COc2ccccc2)n1/N=C/c1ccccc1Br,5.69%
18,CSc1nsc(SC)c1NC(=O)OCc1ccccc1,7.65%
19,CC(C)(C)NCC1(CO)SC(N)=NC1=O (stereo not drawn),3.6%
20,Cc1c(C)c2ccc(OCC(=O)NCCCN3CCCC3=O)cc2oc1=O,1.55%
21,CSc1ccc(/C=C/C(=O)NC23CC4CC(CC(C4)C2)C3)cc1,53.3%
22,CC(C)(C)c1cc(NC(=O)CCSc2nnc3ccccn23)cc(C(C)(C)C)c1,16.4%
23,Cc1cc(NS(=O)(=O)c2ccc(NC(=O)C(C)Oc3cccc(C)c3C)cc2)nc(C)n1 (stereo not drawn),-3.75%
24,CCc1noc(C)c1C(=O)OCC(=O)NC(=O)c1ccccc1,3.13%
25,Cc1ccc(C)c(N2CCN(C3CCCC(C)C3)CC2)c1 (stereo not drawn),3.94%
26,O=C(Nc1ccnn1C1CCN(C(=O)c2ccc(F)cc2)CC1)C1CCOC1 (stereo not drawn),1.78%
